{
  "source": "the supplement of paper PMC8728848",
  "binders": {"B1": {"name": "Surfactant Protein D (Human); Neck + Carbohydrate Recognition Domain (NCRD) (Homo sapiens) (protein)", "chain": "MLLFLLSALVLLTQPLGYLEAEMKTYSHRTMPSACTLVMCSSVESGLPGRDRDGREGPRGEKGDPGLPGAAGQAGMPGQAGPVGPKGDNGSVGEPGPKGDTGPSGPPGPPGVPGPAGREGALGKQGNIGPQGKPGPKGEAGPKGEVGAPGMQGSAGARGLAGPKGERGVPGERGVPGNTGAAGSAGAMGPQGSPGARGPPGLKGDKGIPGDKGAKGESGLPDVASLRQQVEALQGQVQHLQAAFSQYKKVELFPNGQSVGEKIFKTAQFVKPFTEAQLLCTQAGGQLASPRSAAENAALQQLVVAKNEAAFLSMTDSKTEGKFTYPTGESLVYSNWAPGEPNDDGGSEDCVEIFTNGKWNDRACGEKRLVVCEA"}},
  "test_in_all_cases": "glycan array binding signal (z-score within array); higher = stronger binding",
  "details_in_all_cases": "glycan notation: IUPAC condensed, linker removed; mutation: F355A",
  "key": {"Gal(b1-3)GlcNAc": {"target": "Gal(b1-3)GlcNAc", "procedure,_shortened": "(§1)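 Columns mapping to the same glycan were averaged after glycan names were converted to IUPAC-condensed notation. The data come from 3228 arrays in the Consortium for Functional Glycomics database, limited to those with an available protein sequence. Binding is reported as a within-array Z-score averaged across arrays of one protein sequence and across linkers.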"}, "[1]": {"target": "Gal(b1-3)GlcNAc(b1-2)Man(a1-3)[Gal(b1-3)GlcNAc(b1-2)Man(a1-6)]Man(b1-4)GlcNAc(b1-4)GlcNAc", "procedure,_shortened": "as §1"}, "[2]": {"target": "Gal(b1-3)GlcNAc(b1-3)Gal(b1-3)GlcNAc", "procedure,_shortened": "as §1"}, "[3]": {"target": "Gal(b1-3)GlcNAc(b1-3)Gal(b1-4)Glc", "procedure,_shortened": "as §1"}, "[4]": {"target": "Gal(b1-3)GlcNAc(b1-3)Gal(b1-4)GlcNAc", "procedure,_shortened": "as §1"}, "[5]": {"target": "Gal(b1-3)[Fuc(a1-4)]GlcNAc", "procedure,_shortened": "as §1"}, "[6]": {"target": "Gal(b1-3)[Fuc(a1-4)]GlcNAc(b1-3)Gal(b1-3)[Fuc(a1-4)]GlcNAc", "procedure,_shortened": "as §1"}, "[7]": {"target": "Gal(b1-3)[Fuc(a1-4)]GlcNAc(b1-3)Gal(b1-4)GlcNAc", "procedure,_shortened": "as §1"}, "[8]": {"target": "Gal(b1-3)[Fuc(a1-4)]GlcNAc(b1-3)Gal(b1-4)[Fuc(a1-3)]GlcNAc", "procedure,_shortened": "as §1"}, "[9]": {"target": "Gal(b1-3)[GlcNAc(b1-6)]GalNAc", "procedure,_shortened": "as §1"}, "[10]": {"target": "Gal(b1-3)[Neu5Ac(a2-6)]GalNAc", "procedure,_shortened": "as §1"}, "[11]": {"target": "Gal(b1-3)[Neu5Ac(a2-6)]GlcNAc(b1-6)Gal(b1-4)Glc", "procedure,_shortened": "as §1"}, "[12]": {"target": "Gal(b1-3)[Neu5Ac(b2-6)]GalNAc", "procedure,_shortened": "as §1"}, "[13]": {"target": "Gal(b1-4)GalNAc(a1-3)[Fuc(a1-2)]Gal(b1-4)GlcNAc", "procedure,_shortened": "as §1"}, "[14]": {"target": "Gal(b1-4)GalNAc(b1-3)[Fuc(a1-2)]Gal(b1-4)GlcNAc", "procedure,_shortened": "as §1"}, "Gal(b1-4)Glc": {"target": "Gal(b1-4)Glc", "procedure,_shortened": "as §1"}, "Gal(b1-4)Glc6S": {"target": "Gal(b1-4)Glc6S", "procedure,_shortened": "as §1"}, "Gal(b1-4)GlcNAc": {"target": "Gal(b1-4)GlcNAc", "procedure,_shortened": "as §1"}, "[15]": {"target": "Gal(b1-4)GlcNAc(a1-6)Gal(b1-4)GlcNAc", "procedure,_shortened": "as §1"}, "[16]": {"target": "Gal(b1-4)GlcNAc(b1-2)Man(a1-3)[Gal(b1-4)GlcNAc(b1-2)Man(a1-6)]Man(b1-4)GlcNAc(b1-4)GlcNAc", "procedure,_shortened": "as §1"}, "[17]": {"target": "Gal(b1-4)GlcNAc(b1-3)Gal(b1-3)GlcNAc", "procedure,_shortened": "as §1"}, "[18]": {"target": "Gal(b1-4)GlcNAc(b1-3)Gal(b1-4)Glc", "procedure,_shortened": "as §1"}, "[19]": {"target": "Gal(b1-4)GlcNAc(b1-3)Gal(b1-4)GlcNAc", "procedure,_shortened": "as §1"}, "[20]": {"target": "Gal(b1-4)GlcNAc(b1-3)Gal(b1-4)GlcNAc(b1-3)Gal(b1-4)GlcNAc", "procedure,_shortened": "as §1"}, "[21]": {"target": "Gal(b1-4)GlcNAc(b1-3)Gal(b1-4)[Fuc(a1-3)]GlcNAc(b1-3)Gal(b1-4)[Fuc(a1-3)]GlcNAc", "procedure,_shortened": "as §1"}, "[22]": {"target": "Gal(b1-4)GlcNAc(b1-3)GalNAc", "procedure,_shortened": "as §1"}, "[23]": {"target": "Gal(b1-4)GlcNAc(b1-3)[Gal(b1-4)GlcNAc(b1-6)]Gal(b1-4)GlcNAc", "procedure,_shortened": "as §1"}, "[24]": {"target": "Gal(b1-4)GlcNAc(b1-3)[GlcNAc(b1-6)]Gal(b1-4)GlcNAc", "procedure,_shortened": "as §1"}, "[25]": {"target": "Gal(b1-4)GlcNAc(b1-6)Gal(b1-4)GlcNAc", "procedure,_shortened": "as §1"}, "[26]": {"target": "Gal(b1-4)GlcNAc(b1-6)Gal(b1-4)GlcNAc(b1-6)GalNAc", "procedure,_shortened": "as §1"}, "[27]": {"target": "Gal(b1-4)GlcNAc(b1-6)GalNAc", "procedure,_shortened": "as §1"}, "[28]": {"target": "Gal(b1-4)GlcNAc(b1-6)[Gal(b1-3)]GalNAc", "procedure,_shortened": "as §1"}, "Gal3S(b1-3)GalNAc": {"target": "Gal3S(b1-3)GalNAc", "procedure,_shortened": "as §1"}, "Gal3S(b1-3)GlcNAc": {"target": "Gal3S(b1-3)GlcNAc", "procedure,_shortened": "as §1"}, "[29]": {"target": "Gal3S(b1-3)[Fuc(a1-4)]GlcNAc", "procedure,_shortened": "as §1"}, "Gal3S(b1-4)Glc": {"target": "Gal3S(b1-4)Glc", "procedure,_shortened": "as §1"}, "Gal3S(b1-4)Glc6S": {"target": "Gal3S(b1-4)Glc6S", "procedure,_shortened": "as §1"}, "Gal3S(b1-4)GlcNAc": {"target": "Gal3S(b1-4)GlcNAc", "procedure,_shortened": "as §1"}},
  "note": "Some of the results follow.",
  "data": [
    {"binder": "B1", "values": [
      {"measurement": "glycan array binding signal (z-score)", "setting": "Gal(b1-3)GlcNAc", "result": -0.135},
      {"measurement": "glycan array binding signal (z-score)", "setting": "[1]", "result": -0.13},
      {"measurement": "glycan array binding signal (z-score)", "setting": "[2]", "result": -0.099},
      {"measurement": "glycan array binding signal (z-score)", "setting": "[3]", "result": -0.12},
      {"measurement": "glycan array binding signal (z-score)", "setting": "[4]", "result": -0.15},
      {"measurement": "glycan array binding signal (z-score)", "setting": "[5]", "result": -0.138},
      {"measurement": "glycan array binding signal (z-score)", "setting": "[6]", "result": -0.129},
      {"measurement": "glycan array binding signal (z-score)", "setting": "[7]", "result": -0.127},
      {"measurement": "glycan array binding signal (z-score)", "setting": "[8]", "result": -0.12},
      {"measurement": "glycan array binding signal (z-score)", "setting": "[9]", "result": -0.103},
      {"measurement": "glycan array binding signal (z-score)", "setting": "[10]", "result": -0.129},
      {"measurement": "glycan array binding signal (z-score)", "setting": "[11]", "result": -0.112},
      {"measurement": "glycan array binding signal (z-score)", "setting": "[12]", "result": -0.147},
      {"measurement": "glycan array binding signal (z-score)", "setting": "[13]", "result": -0.129},
      {"measurement": "glycan array binding signal (z-score)", "setting": "[14]", "result": -0.163},
      {"measurement": "glycan array binding signal (z-score)", "setting": "Gal(b1-4)Glc", "result": -0.139},
      {"measurement": "glycan array binding signal (z-score)", "setting": "Gal(b1-4)Glc6S", "result": -0.132},
      {"measurement": "glycan array binding signal (z-score)", "setting": "Gal(b1-4)GlcNAc", "result": -0.124},
      {"measurement": "glycan array binding signal (z-score)", "setting": "[15]", "result": -0.155},
      {"measurement": "glycan array binding signal (z-score)", "setting": "[16]", "result": -0.104},
      {"measurement": "glycan array binding signal (z-score)", "setting": "[17]", "result": -0.086},
      {"measurement": "glycan array binding signal (z-score)", "setting": "[18]", "result": -0.137},
      {"measurement": "glycan array binding signal (z-score)", "setting": "[19]", "result": -0.149},
      {"measurement": "glycan array binding signal (z-score)", "setting": "[20]", "result": -0.155},
      {"measurement": "glycan array binding signal (z-score)", "setting": "[21]", "result": -0.101},
      {"measurement": "glycan array binding signal (z-score)", "setting": "[22]", "result": 0.001},
      {"measurement": "glycan array binding signal (z-score)", "setting": "[23]", "result": -0.183},
      {"measurement": "glycan array binding signal (z-score)", "setting": "[24]", "result": -0.067},
      {"measurement": "glycan array binding signal (z-score)", "setting": "[25]", "result": -0.113},
      {"measurement": "glycan array binding signal (z-score)", "setting": "[26]", "result": -0.126},
      {"measurement": "glycan array binding signal (z-score)", "setting": "[27]", "result": -0.142},
      {"measurement": "glycan array binding signal (z-score)", "setting": "[28]", "result": -0.084},
      {"measurement": "glycan array binding signal (z-score)", "setting": "Gal3S(b1-3)GalNAc", "result": -0.139},
      {"measurement": "glycan array binding signal (z-score)", "setting": "Gal3S(b1-3)GlcNAc", "result": -0.163},
      {"measurement": "glycan array binding signal (z-score)", "setting": "[29]", "result": -0.152},
      {"measurement": "glycan array binding signal (z-score)", "setting": "Gal3S(b1-4)Glc", "result": -0.149},
      {"measurement": "glycan array binding signal (z-score)", "setting": "Gal3S(b1-4)Glc6S", "result": -0.147},
      {"measurement": "glycan array binding signal (z-score)", "setting": "Gal3S(b1-4)GlcNAc", "result": -0.136}
    ]}
  ]
}
